Key:
HCI-012 cells = type: cell-based, human; settings: 24 hour
BxPC3 cells = type: cell-based; settings: 24 hour; 20 μM Lapatinib

For `CS(=O)(=O)CCNCc1ccc(-c2ccc3ncnc(Nc4ccc(OCc5cccc(F)c5)c(Cl)c4)c3c2)o1` [Lapatinib], the Akt phosphorylation (HCI-012 cells) was “partially reduced”, the “EGFR, HER2, or HER3 levels” value (HCI-012 cells) was “did not alter” and the Erk phosphorylation (HCI-012 cells) was “strongly suppressed”. For the same molecule, the “RBF3 upregulation of the ER stress markers GRP78, ATF4, XBP1s, or CHOP, with Lapatinib” value (HCI-012 cells) was “did not influence”, the “expression of ER stress markers” value (HCI-012 cells) was “nor did it alter” and the “HER1-3 expression, or Akt or Erk phosphorylation” value (BxPC3 cells) was “no significant effect”.

Source: patent publication US10813904B2, “Small molecule anticancer agents” (University of Florida Research Foundation, Incorporated, priority 2017, dated 2020)
